# Reference: publication PMC4336329 (PLoS ONE, 2015)
# In all, about 310,000 compounds went through this assay and about 2,200 (0.71%) showed an effect of 50% or more. Effects have a minus sign here. The list shows a part of the results.
# Target: human ether-à-go-go-related gene (hERG) potassium channel (human, UniProt Q12809)
# Assay: primary screen, population patch clamp on CHO cells stably expressing hERG
# Sequence of human ether-à-go-go-related gene (hERG) potassium channel (Q12809 whole entry, looked up): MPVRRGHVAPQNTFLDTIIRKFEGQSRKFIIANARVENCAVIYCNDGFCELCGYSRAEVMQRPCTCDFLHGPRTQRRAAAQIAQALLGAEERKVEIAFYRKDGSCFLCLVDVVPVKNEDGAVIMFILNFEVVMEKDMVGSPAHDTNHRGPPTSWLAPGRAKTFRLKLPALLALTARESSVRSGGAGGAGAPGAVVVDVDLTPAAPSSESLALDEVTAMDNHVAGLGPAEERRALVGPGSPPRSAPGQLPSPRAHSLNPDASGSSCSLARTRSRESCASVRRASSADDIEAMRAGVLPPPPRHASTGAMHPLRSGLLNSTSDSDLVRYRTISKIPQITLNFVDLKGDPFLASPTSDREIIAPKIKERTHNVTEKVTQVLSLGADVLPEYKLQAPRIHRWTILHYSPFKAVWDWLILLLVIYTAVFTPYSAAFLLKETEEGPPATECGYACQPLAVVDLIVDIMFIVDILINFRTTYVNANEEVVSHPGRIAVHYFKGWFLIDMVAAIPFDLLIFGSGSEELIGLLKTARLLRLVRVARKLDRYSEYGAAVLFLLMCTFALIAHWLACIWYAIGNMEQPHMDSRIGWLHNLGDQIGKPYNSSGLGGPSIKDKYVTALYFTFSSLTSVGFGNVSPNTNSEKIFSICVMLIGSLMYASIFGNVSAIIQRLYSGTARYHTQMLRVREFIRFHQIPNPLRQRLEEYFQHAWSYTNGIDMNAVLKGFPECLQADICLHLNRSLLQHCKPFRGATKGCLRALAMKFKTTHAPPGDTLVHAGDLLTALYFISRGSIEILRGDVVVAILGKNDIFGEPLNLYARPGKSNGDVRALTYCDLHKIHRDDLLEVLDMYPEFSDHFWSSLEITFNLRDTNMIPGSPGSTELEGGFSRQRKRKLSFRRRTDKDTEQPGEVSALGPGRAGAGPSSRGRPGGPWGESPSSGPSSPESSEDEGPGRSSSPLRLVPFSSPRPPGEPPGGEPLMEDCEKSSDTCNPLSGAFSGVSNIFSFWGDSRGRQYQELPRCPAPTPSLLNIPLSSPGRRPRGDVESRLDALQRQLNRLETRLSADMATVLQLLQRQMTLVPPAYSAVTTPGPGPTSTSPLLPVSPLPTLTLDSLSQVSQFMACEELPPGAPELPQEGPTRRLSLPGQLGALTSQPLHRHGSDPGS
row,SMILES,"hERG current change (%, negative = inhibition) at 1uM [%]"
1,CCC(C)NS(=O)(=O)c1ccc(NC(=O)c2c(-c3ccccc3)noc2C)cc1 (stereo not drawn),7.49
2,CCn1c(SCC(=O)N/N=C/C(C)=C\c2ccco2)nnc1-c1ccccc1,-8.34
3,CC(NCCC1(Cc2ccccc2Cl)CCOC(C)(C)C1)c1cccs1 (stereo not drawn),5.67
4,O=C(Nc1ccc(Cc2nc3ccccc3s2)cc1)c1ccncc1,10.7
5,CCNC(=O)Nc1cc(S(=O)(=O)Nc2ccc(OC)cc2)ccc1N1CCOCC1,4.31
6,O=C(CCNS(=O)(=O)c1cccs1)NCc1ccco1,3.35
7,NC(=O)c1cc([N+](=O)[O-])c(Cl)cc1NCc1ccncc1,12
8,CCN(CC)CCN(C(=O)c1ccc(S(=O)(=O)N(CC)c2ccccc2)cc1)c1nc2c(OC)ccc(OC)c2s1.Cl,6.77
9,CCCn1nc(C(=O)Nc2cc(C(=O)OC)ccc2C)c2ccccc2c1=O,1.48
10,CCOc1ccc(-c2csc3ncn(-c4ccc(OC)cc4)c(=O)c23)cc1,8.39
11,O=[N+]([O-])c1ccc(/C=C/c2ccc3cccc([N+](=O)[O-])c3n2)cc1,7.84
12,COC(=O)c1ccc(OCC(O)CN2CCN(C(=O)c3ccco3)CC2)c(OC)c1 (stereo not drawn),5.43
13,NC(=O)N/N=C1\CCS(=O)(=O)c2ccc(F)cc21,18.6
14,COC(=O)c1ccc(SCC(=O)N2CCC(C)CC2)c([N+](=O)[O-])c1,3.93
15,CC(=O)Nc1ccc(OCC(=O)NCc2ccc(C)cc2)cc1,1
16,O=C1CN=C(c2cc([N+](=O)[O-])ccc2Cl)c2cc([N+](=O)[O-])ccc2N1,8.43
17,CCOCCSc1nc2c(c(-c3cccs3)c1C#N)CC/C2=C/c1cccs1,14.8
18,COc1ccc(OC(=O)c2ccc(OC)c(S(=O)(=O)N3CCOCC3)c2)cc1,4.5
19,CCOc1ccc(S(=O)(=O)n2nc(C)cc2C)cc1,13.8
20,CN(CCCNC(=O)c1cc2c(Cl)nc3ccccc3c2s1)Cc1ccccc1,4.48
21,Cc1ccc(S(=O)(=O)N(C)CC(=O)O/N=C(\N)c2cccc([N+](=O)[O-])c2)cc1,0.303
22,CCC(C)[C@@H](C(=O)Nc1ccc2c(c1)OCO2)N1Cc2ccccc2C1=O (stereo partly drawn),3.29

row,SMILES,"hERG current change (%, negative = inhibition) at 1uM [%]"
1,CCOc1cc2c(cc1OCC)C(c1ccccc1)N(c1ccccc1)C(=O)C2 (stereo not drawn),9.47
2,O=C(N/N=C/C1C(c2ccccc2)C1(Cl)Cl)c1cccc(Br)c1 (stereo not drawn),10.6
3,COC(=O)c1cc(S(=O)(=O)NC2CCC(C)CC2)cn1C (stereo not drawn),14.3
4,Cc1cc(Br)cc(C)c1OCCCCN(C)C.O=C(O)C(=O)O,-20.1
5,O=C(Nc1nnc(-c2ccccc2)o1)Nc1ccc(F)cc1F,2.16
6,O=C(O)c1ccc(N2C(=O)C3C4c5ccccc5C(Br)(c5ccccc54)C3C2=O)cc1 (stereo not drawn),11.3
7,CCOc1cccc(N2C(=O)CC(N3CCC(C(N)=O)(N4CCCCC4)CC3)C2=O)c1 (stereo not drawn),13.9
8,CC(=O)c1c(C)[nH]c(C(=O)CSc2nnc(-c3ccccc3)o2)c1C,15
9,CCN1CCc2c(sc3c2c(NCc2ccco2)nc2nnnn23)C1,-69.3
10,Cn1nccc1C(=O)N1CCC(Cc2ccccc2)CC1,-1.78
11,Cc1ccc(NC(=S)N(CCN(C)C)Cc2cccs2)cc1C,9.88
12,CCCn1c(SCC(=O)N2CCc3ccccc32)nnc1-c1ccco1,10.1
13,COc1cccc2c1C(CO)N1C(C#N)C3CC(C(=O)O)C(C1C2)N3C (stereo not drawn),7.66
14,O=C(NCc1ccccn1)c1cccc(S(=O)(=O)Nc2ccc(SC(F)F)cc2)c1,0.435
15,CC(C)(C)NC(=O)CN(C(=O)CCC(=O)Nc1nccs1)c1cccc(C(F)(F)F)c1,1.88
16,COCc1c(CCl)cnc(C)c1O,20.7
17,O=C1C/C(=C\c2c(F)cccc2Cl)N2CCC1CC2,0.848
18,Cc1nc2ccccn2c1C(=O)NNC(=S)Nc1ccc(Cl)cc1,0.76
19,COc1ccccc1NS(=O)(=O)c1cc(C(=O)NCCN2CCOCC2)ccc1Cl.Cl,2.92
20,O=C(COC(=O)c1n[nH]c2ccccc12)Nc1ccc(S(=O)(=O)N2CCCC2)cc1,4.84
21,O=C(NCCc1c[nH]c2ccccc12)/C(=C/c1cccnc1)NC(=O)c1ccco1,-14.7
22,Cc1ccc(CN2CCN(/N=C/c3cc(Br)ccc3O)CC2)cc1,14.9

row,SMILES,"hERG current change (%, negative = inhibition) at 1uM [%]"
1,CCOc1ccc(CCNC(=O)COC(=O)c2ccc(F)c(S(=O)(=O)N3CCOCC3)c2)cc1OCC,5.48
2,Nc1ccc(-c2cc(-c3cccc(N)c3)nc(-c3ccccc3)n2)cc1,13.7
3,COc1ccccc1NC(=S)N1CCC(NC(=O)C23CC4CC(CC(C4)C2)C3)CC1,3.95
4,Cc1cc(C(=O)COC(=O)C2=NNC(=O)CC2)c(C)n1CCc1ccccc1,5.67
5,Cc1ccc(NC(=O)c2cnn(-c3ccccc3)c2C)cc1,11.3
6,ON1C2CCCCC2N(O)C1c1ccccc1 (stereo not drawn),15.1
7,COc1cccc(-c2cc(C(=O)NC3CCCCC3)no2)c1,6.32
8,O=C(Cc1ccc(Cl)cc1)NNC(=O)c1ccco1,17
9,Cc1cc(-c2ccccc2)nc2cc(C(=O)N(Cc3ccccc3)Cc3ccccc3)nn12,-3.92
10,CC(C)N(Cc1ccccc1)S(=O)(=O)c1ccc(Cl)nc1,6.97
11,O=C(NC1CCCCC1)[C@@H]1CC=C[C@@H]2CCN(Cc3ccccc3)C(=O)[C@@H]21,13.9
12,O=C(NCc1ccc(Cl)cc1Cl)C1CC(=O)N(Cc2ccccc2)C1 (stereo not drawn),-14.6
13,CCC(=O)OCC(=O)Nc1cc(S(=O)(=O)N(C)C)ccc1Cl,19.8
14,Cc1ccc(C)c(S(=O)(=O)NC(C)C(=O)NCc2ccccn2)c1 (stereo not drawn),17.4
15,COC(=O)[C@@]1(Cc2ccc(OC)cc2)[C@H]2c3cc(C(=O)N(C)C)n(Cc4c(CO)[nH]cc(C)c4=O)c3C[C@H]2CN1C(=O)c1ccccc1,9.85
16,C=CCNC(=S)Nc1ccc(N2CCOCC2)c(S(=O)(=O)Nc2ccccc2Cl)c1,9.02
17,O=C(CCCOc1ccccc1)Nc1ccc(S(=O)(=O)Nc2ccccn2)cc1,12.3
18,Cc1[nH]c2ccccc2c1C(O)CN1CCC2(CC1)OCCO2 (stereo not drawn),1.75
19,CC(C)n1c(O)c(N=Nc2ccc(Cl)c(C(=O)O)c2)c2ccccc21,-0.433
20,CCc1noc(C)c1C(=O)NCCc1ccc(F)cc1,8.6
21,Cc1nc(NCCCN2CCOCC2)c2oc3ccccc3c2n1.Cl,7.18
22,Cc1cc(C(F)(F)F)n(-c2nc(C(=O)O)cs2)n1,17.6

row,SMILES,"hERG current change (%, negative = inhibition) at 1uM [%]"
1,CCOC(=O)C1=C(c2ccccc2)NC(=S)NC1c1cc([N+](=O)[O-])ccc1OC (stereo not drawn),7.47
2,Cc1ccc(C(=O)Nc2scc(-c3ccccc3)c2C(=O)O)o1,14.5
3,CCNC(=O)C1CC(=O)OC12CCCCC2 (stereo not drawn),6.14
4,CNC(=S)N1CCn2cccc2C1c1ccc(F)cc1 (stereo not drawn),7.45
5,COc1ccc(Br)cc1CN(C)C(C)C(=O)Nc1cccc(C(C)=O)c1 (stereo not drawn),7.11
6,CCC(C)c1ccccc1O (stereo not drawn),12.2
7,COc1ccc(O)c(C(=O)c2cnn(S(=O)(=O)c3ccc(C)cc3)c2)c1,5.56
8,COc1ccc(CNC(=O)C2CCC(CNS(=O)(=O)c3ccc(C)cc3)CC2)cc1 (stereo not drawn),12.2
9,CCNc1cccc2c1C(=O)N(C)C2=O,30.6
10,O=C(N/N=C/c1cccc2ccccc12)c1ccccc1Cl,14
11,COC(=O)c1[nH]cnc1C(=O)c1ccccc1,12
12,COc1ccc(CC2(CO)CCN(Cc3ccc4nsnc4c3)CC2)cc1,-4.45
13,COC(=O)c1sccc1NC(=O)CSc1ccccc1NS(=O)(=O)c1ccc(Cl)cc1,-2.54
14,Cc1c(NC(=O)c2cccnc2C(=O)O)cccc1C(=O)O,3.86
15,CCOc1ccc(-c2c(=O)n(OCC)c3ccccc3[n+]2[O-])cc1,-2.34
16,O=S(=O)(c1ccc(NC(=S)N/N=C/c2ccc(N3CCOCC3)cc2)cc1)N1CCOCC1,17.5
17,Clc1ccc(SCCN2CCNCC2)cc1.O=C(O)C(=O)O,7.9
18,COc1ccccc1NC(=S)N1CCN(c2nc(-c3ccccc3)cs2)CC1,8.23
19,CS(=O)(=O)c1ccc(Cl)c(NC(=O)CCc2ccccc2)c1,3.51
20,Cc1ccc(-n2cccc2/C=C2/C(=N)N3C(=NC2=O)SN=C3S(C)(=O)=O)cc1,4.78
21,CCOC(=O)c1ccc(NC(=S)Nc2ccccn2)cc1,8.79
